The values below come from the supplement of paper PMC10338343.

± gives the standard deviation. The full ranking holds about 6,600 sequences; the median of “pre-steady-state target cleavage rate” is about 0.07, and the highest 2% start at about 0.72. This is a selection; strong and weak results do not stand in their true shares. A value given as a limit tells only on which side of the number the result lay.

The test system of this experiment is MIWI (PIWIL1) piRISC loaded with Kctd7 piRNA (30 nt). The experiment in a line: pre-steady-state target cleavage rate (min^-1); MIWI and MILI are mouse PIWI proteins and EfPiwi is from a freshwater sponge; tags in brackets are library labels; higher = faster piRNA-guided slicing of the target. As to conditions: guide: Kctd7 piRNA 5'p-UGUUAAUCUCUCAGAGAAGGUGACAGUGAU; auxiliary factor: 500 nM mouse GTSF1. As for the experimental part: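 Cleave-'n-Seq: a library of target RNAs (target site embedded in constant flanks, ACAGCATTCCGCGTTAGTGATATCCG... 5' flank; DNA-blocked outside the site) at 0.1 nM was incubated with 1 nM active mouse MILI or MIWI piRISC (synthetic 5'-monophosphorylated piRNA guide) with or without 500 nM mouse GTSF1 at 33 °C for 1 min to 16 h. Uncleaved targets were sequenced and normalised to non-target controls, and the pooled three trials were fitted to a burst-and-steady-state model to give the pre-steady-state cleavage rate (min^-1; k3 is constrained to at most 1e-4). Sequence is the target site only; target names encode pairing extent (gX:gY) and contiguous / 1-mismatch / 2-mismatch / bulge geometry. Fits with R² ≤ 0 are excluded.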
Consider UACUGUGUCACCUUCUCUGAGAGAUUAAGA, for which the “pre-steady-state target cleavage rate” value worked out at 0.223 ± 0.027.
UAGUGACACACCUUCUCUGAGACUAUAUGA: the “pre-steady-state target cleavage rate” value was less than 0.0001.
Next, UAGUGACACUCCUUCUCUGACAGAUUAACA: 0.0907 ± 0.011; UACACUCUCACCUUCUCUGACAGAUUAACA: 0.333 ± 0.028; UAGUGACUCACCUACUCUGAGAGAUAAACA: 0.0896 ± 0.015.
As for UAGUGACAGACCUUCUCUGAGAGAUUAACCA, the “pre-steady-state target cleavage rate” value was 0.186 ± 0.021.
With UAGUCUGUCACCUUGUCUGAGAGAAUAACA the figure was 0.0521 ± 0.019; with UAGUGACAGACCUUGUCUGAGAGAUUAACA, 0.0271 ± 0.0055.
Turning to UAGUGUGUCUCCUUCUCUGAGAGAUUAUGA, the “pre-steady-state target cleavage rate” value was determined as 0.0256 ± 0.0085.
With UAGUGACAGUGCUUCUCUGCGAGAUUAACA the figure was 0.00577 ± 0.0016.
Consider UUCACUGUCACCUAUCUCUGAGAGAUUAACA, for which the “pre-steady-state target cleavage rate” value came to 0.595 ± 0.028.
With UUCACUGUCACCAUCUCUGAGAGAUUAUCA the figure was 0.313 ± 0.042; with UAGUGACUCACCUUCUCUGUGAGAAUAACA, 0.0194 ± 0.0051.
Next, UAGUCUGUGACCUUCUCUGUGAGAUUAACA: 0.189 ± 0.015; AUCACUGUCACCUUCUCUGAGUCAUUAACA: 0.0117 ± 0.0032.
With UAGUGUGUCACCUUCUCUGAGAGUUUAAGA the figure was 0.161 ± 0.04; with UAGUGAGUCACGUUCUGUGAGAGAUUAACA, 0.427 ± 0.025.
As for UAGUGACUCACCUUCUCUGAGAGAAUAUCA, the “pre-steady-state target cleavage rate” value came out at 0.0374 ± 0.0092.
Turning to UAGACUGUCACCUUCGCUGAGAGAUUAACA, the “pre-steady-state target cleavage rate” value is 0.425 ± 0.047.
Next, UUCACUGUCACCUUCUCAGAGAGAUUUUGA: 0.223 ± 0.06.
Next, AUCACAGUCACCUUCUCUGAGAGAUUAUCA: 0.29 ± 0.035; UAGUGACAGUGGAAGACUGCGAGAUUAACA: less than 0.0001; UUCAUGUCACCUUCUCUGAGAGAUUAACA: 0.311 ± 0.032.
Next, UAGUGACACUACCUUCUCUGAGAGAUUAACA: 0.324 ± 0.025; UAGUGACUCACCUACUCUGAGUGAUUAACA: 0.00715 ± 0.0029; UAGUGAGUCACCUUCUCUGAGAGUUUAACA: 0.392 ± 0.067.
On to UAGUGACACACCUACUCUGAGAGAUUAACA, for which the “pre-steady-state target cleavage rate” value was 0.251 ± 0.026.
Next, UUGACUGUCACCUUCUCUGAGAGAUUAAGA: 0.257 ± 0.034; UAGUGUGUCACCUUCUCUGAGAGUUUAUGA: 0.103 ± 0.033.
With UAGACUGACACCUUCUCUGAGAGAUUUUGA the figure was 0.0218 ± 0.0063; with UAGUGACACACCUUCUGUGAGUGAUUAACA, 0.0191 ± 0.0043; with UUCACUGUCACCUUCUCUCUGAGAUUAAGA, 0.013 ± 0.0054.
Next, UAGUGACAGUGCUUCUCUGAGAGCAUUAACA: 0.00327 ± 0.003; UAGACUGUCACCUUCUCUGAGAGAUUGAACA: 0.446 ± 0.055; UACACUGUCUGCUUCUCUGAGAGAUUUUGA: 0.00732 ± 0.0032.
With UAGUGACUCUCCUUCUCUGAGAGAUUAAGA, the “pre-steady-state target cleavage rate” value stood at 0.0258 ± 0.0053.
Regarding AUCACUGUCACCUUCUCUGAGAGAUUUUGA, the “pre-steady-state target cleavage rate” value was found to be 0.0948 ± 0.023.
For AACACUGUCACCUUCUGUGAGAGAUUAACA, the “pre-steady-state target cleavage rate” value was 0.623 ± 0.029.
With UUGUCUGUCACCUUCUCUGAGAGAUUAUGA the figure was 0.0511 ± 0.015; with UAGAGUGUCACCUUCUCUGAGAGAUUUACA, 0.411 ± 0.049.
